# Out of some 45,000 compounds screened, about 200 (0.44%) were called active. About 7% were inconclusive and are not listed. Calls come from the whole dose curve; as a rule, active = well fitted activation curve with a large enough effect; inconclusive = small, poorly fitted or top-dose-only effect; inactive = no such curve, though single readings can be large or run the other way. Some of the results follow.
# Assay: qHTS of TDP-43 Inhibitors: NCGC Sytravon Library Screen; note: 0% is about no effect; nearly all actives have a fitted effect of over 55% in size
# Details: yeast TDP-43 toxicity rescue, BacTiter-Glo growth, 24 h; series mostly up to 46.1 µM; growth rescue (activation): at the top concentration
# Method in brief: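 TDP-43-expressing yeast, pregrown in raffinose, seeded at OD600 0.02 in galactose medium with compound for 24 hr at 30 deg C. Growth read by BacTiter-Glo luminescence, so rescue of toxicity appears as activation.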
row,Structure (SMILES),growth rescue (activation)
1,CC(=O)Nc1ccc(NC(=O)c2ccc(-n3c(C)ccc3C)cc2)cc1,inactive: 8.8%
2,COc1cc(/C=N/Nc2ccc(F)cc2F)cc(OC)c1O,inactive: 10.5%
3,CC1CC(C)CN(C(=O)Cc2c(C(=O)O)[nH]c3ccc(Cl)cc23)C1 (centres undefined),inactive: -1.34%
4,CCCN1CCN(c2ncnc3c2nnn3Cc2ccccc2)CC1,inactive: 20.8%
5,COC(=O)c1c([N+](=O)[O-])c(OC)c(OC)c(OC)c1[N+](=O)[O-],inactive: 14.9%
6,CCOC(=O)c1sc(=S)n(-c2ccccc2)c1C,inactive: 11.3%
7,CCCNC(=O)C1(C)CCN(C(=O)c2ccc(OC(F)F)cc2)C1 (centres undefined),inactive: -0.0296%
8,CCCCn1c(-c2cccc(F)c2)nc2c1c(=O)[nH]c(=O)n2CC(C)C,inactive: 1.05%
9,COc1ccc(CCN(Cc2nc3ccccc3c(=O)[nH]2)C(=O)C2CC2)cc1,inactive: 5.31%
10,COc1cc(F)ccc1-c1csc(C(NC(C)=O)c2ccc(F)c(F)c2)n1 (centres undefined),inactive: 3.42%
11,O=C(CSc1nccc(=O)[nH]1)Nc1cccc2ccccc12,inactive: 6.98%
12,Cc1ccc(C(=O)OC(C)CN2C(C)CCCC2C)cc1 (centres undefined),inactive: 22.4%
13,CCCc1nc2nc(C)c(NS(=O)(=O)c3ccc(Cl)cc3)c(=O)n2[nH]1,inactive: -0.174%
14,O=C(CSc1nnc(SCc2ccc(Cl)cc2)s1)N/N=C/c1ccc(C(=O)O)cc1,inactive: 14.4%
15,CCOC(=O)C1=C(N)Oc2c(oc(CO)cc2=O)C1c1ccc(Cl)cc1 (centres undefined),inactive: -14.2%
16,O=C(C1=C(O)C(=O)N(CC2CCCO2)C1c1cccc(Cl)c1)c1ccco1 (centres undefined),inactive: -9.59%
17,OC[C@H]1O[C@H](c2nc(-c3nc(-c4cccc(-n5cccc5)c4)no3)cs2)C[C@@H]1O,inactive: 3.4%
18,Cn1c(=O)c2c(-c3cccc(Br)c3)c(C#N)c(N)nc2n(C)c1=O,inactive: 28.2%
19,CCOc1ccc(N(CC(=O)NCc2ccc(Cl)cc2)S(=O)(=O)c2ccccc2)cc1,inactive: 8.2%
20,N/C(=N\c1nc2ccccc2o1)NC(=O)/C=C/c1ccccc1,inactive: 13%
21,Cc1cc(OCc2nc(-c3ccncc3)no2)cc(C)c1Cl,inactive: 3.36%
22,Fc1ccc(NC(=S)N2CCN(c3cccc(C(F)(F)F)c3)CC2)cc1,inactive: 0.326%
23,Cc1cccc(C)c1NC(=O)CNC(=O)c1cnccn1,inactive: 10%

row,Structure (SMILES),growth rescue (activation)
1,CCOC(=O)C(C)(C)NS(=O)(=O)c1ccc(Cl)c([N+](=O)[O-])c1,inactive: 6.49%
2,CC(C)(C)C(=O)NCc1ccc(C(=O)CN2C(=O)NC3(CCCC3)C2=O)s1,inactive: 20.7%
3,O=[N+]([O-])c1cc(CN(CCO)CCO)ccc1O,inactive: 16%
4,O=C(Nn1cc(C(=O)N2CCN(c3ccccc3F)CC2)c2ccccc2c1=O)c1cnccn1,inactive: -4.09%
5,CSc1nnc(NC(=O)c2nc(S(=O)(=O)Cc3ccccc3F)ncc2Cl)s1,inactive: 12.7%
6,COc1ccc(Cc2nnc(NC(=O)c3cccs3)s2)cc1,inactive: -10.9%
7,O=S(=O)(NCCOCCNS(=O)(=O)c1ccccc1)c1ccccc1,inactive: 9.5%
8,CCc1nc2nc(C)c(NS(=O)(=O)c3cccs3)c(=O)n2[nH]1,inactive: 8.19%
9,O=C(N/N=C/c1c(Cl)cccc1Cl)C(=O)NC1CC1,inactive: 11.5%
10,Cn1c(N)c(C(=O)COC(=O)CC(NC(N)=O)c2ccc(Cl)cc2)c(=O)n(C)c1=O (centres undefined),inactive: 17.7%
11,Cc1ccc(-c2cc(C(F)(F)F)c(C#N)c(=O)[nH]2)cc1,inactive: -11.2%
12,CC1CCN(C(=O)Cn2c(=O)n(Cc3ccco3)c(=O)c3sccc32)CC1,inactive: 9.87%
13,Cn1c(CCCOc2ccc(Cl)cc2Cl)nnc1SCC(=O)Nc1ccc(F)c(Cl)c1,inactive: 11.3%
14,O=C(c1nc2ccccn2c1CN1CCCC(OCc2ccccc2)C1)N1CCCC1 (centres undefined),inactive: 12.8%
15,CN(C)c1ncnc2c1ncn2[C@H]1CN(Cc2ccc(-c3ccccc3)cc2)C[C@@H](CO)O1,inactive: 12.5%
16,CCCCCCC(C)n1[nH]c(=O)c2c(C)cc(C)nc21 (centres undefined),inactive: 30%
17,Cn1c(CC(=O)Nc2ccccc2Cl)nnc1SCC(=O)NC1CCCCC1,inactive: 4.83%
18,O=C(O)COC(=O)C1C(c2ccccc2)C(C(=O)O)C1c1ccccc1 (centres undefined),inactive: -25%
19,COc1ccc(S(=O)(=O)N2CCC(C(=O)N3CCN(C)CC3)CC2)cc1OC,inactive: 4.55%
20,CNC(=O)/C(C#N)=C/c1cccc(Oc2ccccc2)c1,inactive: -91.1%
21,CC(C(=O)NN)c1ccc([N+](=O)[O-])cc1 (centres undefined),inactive: 4.36%
22,COc1ccc(CNC(=O)C2(C)Cc3c(-c4ccccc4)ccnc3O2)cc1OC (centres undefined),inactive: 0.827%
23,COc1cccc2cc(C(C)N(CCCN3CCOCC3)C(=S)Nc3c(C)cccc3C)oc12 (centres undefined),inactive: 1.11%

row,Structure (SMILES),growth rescue (activation)
1,C=C(C)COc1ccc(-c2ncncc2-c2ccccc2OC)c(O)c1,inactive: 34.7%
2,Cc1cc(=O)[nH]c(Nc2cccc(C(F)(F)F)c2)n1,inactive: -5.79%
3,COCCNc1nnc(SCC(=O)c2c[nH]c3ccccc23)s1,inactive: -20.1%
4,CCc1nnc(SCC(=O)Nc2nnc(C)s2)n1CC1CCCO1 (centres undefined),inactive: 5.32%
5,CCOC(=O)C1CCN(CCCSc2ccc(C)cc2)CC1,inactive: 5.54%
6,Cn1nc(-c2ccc3c(c2)OCCO3)c2ccccc2c1=O,inactive: 4.45%
7,O=C(O)c1ccc(N2CC3CC(C2)c2cccc(=O)n2C3)c(NC(=S)Nc2ccc(Br)cc2)c1 (centres undefined),inactive: 20.1%
8,COc1cc(CN(C)Cc2nc3cc(C(F)(F)F)ccc3c(=O)[nH]2)ccc1OC(F)F,inactive: -2.72%
9,CC(C)(C)C(=O)N1CCN(C(=O)c2ccco2)CC1,inactive: -12.2%
10,O=S(=O)(c1ccccc1)N1CC=C(c2ccccc2)CC1,inactive: 16.5%
11,O=C(N/N=C/c1cn(-c2ccccc2)nc1-c1cccnc1)c1ccccc1,inactive: -5.05%
12,Cc1ccc(-n2ncc3c2CCCC3NC(=O)CCc2c(C)noc2C)cc1C (centres undefined),inactive: 16.8%
13,CC(C)CC[n+]1ccccc1/C=C/c1ccc(N(C)C)cc1,inactive: -3.33%
14,O=C(c1ccc(O)cc1)c1ccc(O)cc1O,inactive: -4.65%
15,Cc1c(Cl)cccc1NC(=O)c1noc2c1CCCC2,inactive: 26.6%
16,COCCCN1CN(Cc2ccco2)CNC1=S,inactive: -9.37%
17,COc1ccc(F)cc1S(=O)(=O)NCCCn1ccnc1,inactive: 2.38%
18,COc1ccc(/C=C/C(=O)OCC(=O)NC2CCCCC2C)c(OC)c1 (centres undefined),inactive: 26.9%
19,CC(=O)Nc1ccc(NC(=O)CCc2nc3ccccc3c(=O)[nH]2)cc1,inactive: 0.518%
20,Cc1ccc(S(=O)(=O)Nc2ccccc2C(=O)N2CCCC2)cc1,inactive: 14.3%
21,COc1ccc(C(=O)N2CCC(C(=O)Nc3ccccc3C)CC2)cc1OC,inactive: -0.102%
22,COc1ccc(C(=O)N[C@H](C(=O)NCc2ccc(C)cc2)C(C)C)cc1,inactive: 17.4%
23,N#CCCN(C(=O)COC(=O)/C=C/c1cccs1)c1ccccc1,inactive: 10.3%
